Measured values as given in PubChem BioAssay AID485294 (National Center for Advancing Translational Sciences (NCATS), 2010).
In all, about 370,000 compounds went through this assay and about 150 (0.041%) were called active. This list was built around the results that the source calls inconclusive (neither active nor inactive); the mix of calls is not that of the screen. The call rests on the fitted dose curve; in most records, active means well fitted inhibition curve with a large enough effect; inconclusive means small, poorly fitted or top-dose-only effect; inactive means flat fitted curve, though single readings scatter. Potencies of inconclusive entries are left out as doubtful fits.

Biological target: Beta-lactamase (Escherichia coli (strain K12)) (UniProt P00811)
Chain of UniProt P00811 (P00811 whole entry, looked up): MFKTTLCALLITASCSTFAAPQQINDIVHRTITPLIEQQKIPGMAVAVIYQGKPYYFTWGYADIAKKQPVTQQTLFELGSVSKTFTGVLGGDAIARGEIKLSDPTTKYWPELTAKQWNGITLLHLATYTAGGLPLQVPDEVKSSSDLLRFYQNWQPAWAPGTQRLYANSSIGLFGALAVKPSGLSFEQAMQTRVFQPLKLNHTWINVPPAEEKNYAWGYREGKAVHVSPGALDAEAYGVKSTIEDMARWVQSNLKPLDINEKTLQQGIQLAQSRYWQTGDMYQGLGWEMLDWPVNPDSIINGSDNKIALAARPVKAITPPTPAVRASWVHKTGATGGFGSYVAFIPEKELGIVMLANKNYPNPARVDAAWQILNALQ
Assay: qHTS Inhibitors of AmpC Beta-Lactamase (assay with detergent); further: nearly all actives have a fitted effect of over 25% in size;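 on activity change, negative = inhibition: 0% = no-compound wells and -100% = no-enzyme wells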
Settings: AmpC hydrolysis of nitrocefin, absorbance 480 nm, 0.01% Triton; activity change, negative = inhibition: at 114 µM (top of the series)
Method in brief: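 20 mM phosphate pH 7.0 + 0.01% (detergent screen) or 0.0001% Triton X-100; 5.3 nM AmpC reagent; cpd preinc 15 min RT; nitrocefin (800 uM stock) to start; A480 q20 s × 4 min; Activity was normalised to no-enzyme and no-compound control wells.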
Potency means the concentration at half of the fitted maximal effect; tags describe the fitted curve by direction and shape.

Row | Compound | Potency | activity change, negative = inhibition
1 | C=CCNC(=O)c1ccc(Sc2ccc(C)cc2)c([N+](=O)[O-])c1 | inconclusive [inhibitor, single point] | –
2 | Cc1c(C)c2ccc(Oc3ccc([N+](=O)[O-])cc3C(F)(F)F)c(C)c2oc1=O | inconclusive [inhibitor, full curve] | –
3 | COc1ccc(S(=O)(=O)c2nnn(-c3ccccc3Cl)c2N)cc1 | inconclusive [inhibitor, single point] | –
4 | CCN1CCN(C(c2ccc(SC)cc2)c2c(O)cc(C)n(CCOC)c2=O)CC1 (configuration not stated) | – | inactive: 7.06%
5 | COCCCNC(=O)c1ccc(Cn2c(=O)c3ccccc3n(Cc3c(C)cc(C)cc3C)c2=O)cc1 | – | inactive: 1.95%
6 | COc1cccc(CC(=O)Nc2cccc3ccccc23)c1 | – | inactive: -4.37%
7 | c1ccc2sc(N3CCOCC3)nc2c1 | inconclusive [inhibitor, full curve, poor fit] | –
8 | CCCC1NC(C(=O)O)Cc2c1[nH]c1ccccc21 (configuration not stated) | – | inactive: -8.87%
9 | CCCC(=O)N1CCN(c2ccc(NC(=O)c3cc4ccccc4o3)cc2Cl)CC1 | inconclusive [inhibitor, single point] | –
10 | O=C(NCCCN1CCCC1=O)c1ccc(S(=O)(=O)Nc2cccc(C(F)(F)F)c2)cc1 | inconclusive [inhibitor, partial curve, poor fit] | –
11 | CC(=O)Nc1ccc(NC(=O)C(C)OC(=O)c2cc(S(=O)(=O)N3CCOCC3)ccc2Cl)cc1 (configuration not stated) | inconclusive [inhibitor, single point] | –
12 | CCN(Cc1ccncc1)C(=O)CCc1nnc(CCc2ccc(OC)cc2)o1 | – | inactive: -1.32%
13 | COc1ccc(NC(=O)c2cc(-c3ccc(C)c(C)c3O)n[nH]2)cc1Cl | inconclusive [inhibitor, partial curve] | –
14 | CC(=O)c1ccc(N2CCN(C(=O)Nc3ccc(F)cc3)CC2)cc1 | – | inactive: -3.12%
15 | Cc1ccccc1C(=O)N(Cc1sccc1C)C1CCS(=O)(=O)C1 (configuration not stated) | – | inactive: -3.66%
16 | Cc1cc(NC(=O)CSc2nnc3c(C)cc4cc5c(cc4n23)OCO5)no1 | inconclusive [inhibitor, full curve, poor fit] | –
17 | COc1cccc(-c2nnc3sc(-c4ccccc4)nn23)c1 | inconclusive [inhibitor, partial curve, poor fit] | –
18 | CCN(CC)CCn1c2c(c(SCC(=O)Nc3nc4ccc(C)cc4s3)nc1=O)CCC2 | inconclusive [inhibitor, partial curve] | –
19 | CCCCNC(=S)Nc1ccc(SC(F)F)cc1 | inconclusive [inhibitor, partial curve, poor fit] | –
20 | Nc1cc(-c2ccc(Br)cc2)[nH]n1 | inconclusive [inhibitor, partial curve, poor fit] | –
21 | Cc1ccc(NC(=O)C(=O)C2C(=O)Nc3ccccc32)cc1 (configuration not stated) | – | inactive: 5.7%

Row | Compound | Potency | activity change, negative = inhibition
22 | NC(=O)CN(Cc1ccccc1)S(=O)(=O)c1ccc2c(c1)OCCO2 | – | inactive: -2.99%
23 | S=C(Nc1ccc(Nc2ccccc2)cc1)Nc1ccccn1 | – | inactive: 6.19%
24 | COC(=O)CCCC[C@H]1SC[C@H]2NC(=O)N[C@]21O | inconclusive [inhibitor, partial curve] | –
25 | CC1CCCCC1NC(=O)c1cccc(S(=O)(=O)N2CCN(C)CC2)c1 (configuration not stated) | inconclusive [inhibitor, partial curve] | –
26 | Cc1cc(OCC(=O)Nc2c(C)n(C)n(-c3ccccc3)c2=O)c2c3c(c(=O)oc2c1)CCC3 | inconclusive [inhibitor, full curve, poor fit] | –
27 | O=S(=O)(Cc1noc(-c2ccccc2Cl)n1)c1ccccn1 | – | inactive: 9.89%
28 | CC1CCCC(C)N1c1nnc(NC(=O)c2cc(-c3ccc(Br)cc3)on2)s1 (configuration not stated) | inconclusive [inhibitor, full curve, poor fit] | –
29 | O=C(CCCCCNc1nc(=S)[nH]c2ccccc12)NCCc1c[nH]c2ccccc12 | inconclusive [inhibitor, full curve, poor fit] | –
30 | CSc1cccc(NC(=O)CCS(=O)(=O)c2cccc3nonc23)c1 | inconclusive [inhibitor, single point] | –
31 | COC(=O)c1cc(OC)c(OC)cc1NC(=O)c1ccccc1 | inconclusive [inhibitor, full curve] | –
32 | COc1ccc(/C=N/NC(C)(C)C)c(OC)c1 | inconclusive [inhibitor, full curve, poor fit] | –
33 | C(=N\N1CCN(C2c3ccccc3-c3ccccc32)CC1)/c1ccncc1 | inconclusive [inhibitor, single point] | –
34 | C=CCn1c(=O)c2c(nc(-n3nc(C)cc3C)n2C)n(C)c1=O | inconclusive [inhibitor, full curve, poor fit] | –
35 | CC(Oc1ccc2c(-c3ccccc3)cc(=O)oc2c1)C(=O)NCc1ccccn1 (configuration not stated) | inconclusive [inhibitor, partial curve] | –
36 | CCc1ccc(-c2cc(C)no2)cc1S(=O)(=O)N1CCCN(Cc2ccc(F)cc2)C1 | inconclusive [inhibitor, partial curve, poor fit] | –
37 | Cc1c(NC(=O)/C=C/c2ccc(S(=O)(=O)N3CCOCC3)cc2)c(=O)n(-c2ccccc2)n1C | – | inactive: 0.85%
38 | Cc1ccc(NC(=O)N2CCN(Cc3ccc4c(c3)OCO4)CC2)cc1 | inconclusive [inhibitor, partial curve, poor fit] | –
39 | COc1ccc(C)cc1NC(=O)c1ccc(-c2ccc(C(C)=O)cc2)o1 | inconclusive [inhibitor, partial curve, poor fit] | –
40 | O=C(CNCc1ccco1)Nc1ccccc1-n1cccc1 | inconclusive [inhibitor, partial curve] | –
41 | CCn1c(COc2ccc(C)cc2)nnc1SCC(=O)Nc1ccc2c(c1)OCCO2 | inconclusive [inhibitor, full curve, poor fit] | –
42 | Cc1ccc(NC(=O)N2CCC(C(=O)c3ccc(F)cc3)CC2)cc1 | inconclusive [inhibitor, full curve, poor fit] | –
